# Laboratory results taken from PubChem BioAssay AID651820 (National Center for Advancing Translational Sciences (NCATS), 2012).
# About 12,000 (3.5%) of roughly 340,000 compounds were called active. The shares of active, inactive and inconclusive entries below differ from those in the screen. The call rests on the fitted dose curve; in most records, active means well fitted inhibition curve with a large enough effect; inconclusive means small, poorly fitted or top-dose-only effect, or another doubt; inactive means no such curve, though single readings can be large or run the other way. No potency is given beside an inconclusive call; the fits are too rough.
# Test: qHTS Assay for Inhibitors of Hepatitis C Virus (HCV)
# Conditions: Huh7.5.1 HCVcc-Cre (HCVcc is cell-culture hepatitis C virus) infection, luciferase reporter, 44 h; activity change, negative = inhibition: at 41.8 µM (top of the series) unless noted
# How it was run: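 1,000 cells/well; 4 h culture; + compound; + HCVcc-Cre (~0.5 moi); 44 h; luciferase substrate, RT 15 min; read 15 sec.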
# On the % scale 0 is the no-effect control and ±100 the full control effect; potency means the concentration at half of the fitted maximal effect; tags describe the fitted curve by direction and shape.
Compound,Potency,"activity change, negative = inhibition"
COC(=O)C1C(=O)C2=C(CC1C)NC(C)=C(C(=O)OCCOc1ccccc1)C2c1ccc(C)o1 (configuration not stated),active: 12.6 µM,
COc1ccccc1N/N=C/c1ccc2c(c1)OCO2,,inactive: 1.88%
Cc1cccc(NC(=O)[C@@H](NC(=O)N2C[C@H]3C[C@@H](C2)c2cccc(=O)n2C3)C(C)C)c1,,inactive: -21.7%
CC1=C(/C=C/C(C)=C/C=C/C(C)=C/CO)C(C)(C)CCC1,,inactive: -11.4%
COc1ccc(OC)c(-c2csc(NC(=O)C3=NNC(=O)CC3)n2)c1,active: 0.891 µM,
CCc1cc2ccc(OC)cc2nc1SCC(=O)N1CCN(C(=O)c2ccco2)CC1,"inconclusive [inhibitor, single point]",
CCc1ccc(-c2cc(C)no2)cc1S(=O)(=O)NCCCN1CCN(c2ccccc2)CC1,active: 2 µM,
CCOc1ccccc1NC(=S)NC(=O)CCc1ccccc1,"inconclusive [inhibitor, single point]",
CCN(CC)C(=O)COc1ccc2c3c(c(=O)oc2c1C)CCCC3,"inconclusive [inhibitor, partial curve, poor fit]",
O=C(NNC(=O)c1ccc(Br)o1)c1ccc(NS(=O)(=O)c2cccs2)cc1,,inactive: 12.9%
Cc1cccc(OCC(=O)Nc2ccc(N3CCN(C(=O)c4ccco4)CC3)cc2)c1,"inconclusive [inhibitor, full curve]",
CC(O)c1nc2ccccc2n1CC(=O)Nc1ccc(F)cc1Cl (configuration not stated),,inactive: 5.54%
Clc1ccccc1C1NCc2ccccc2-n2cccc21 (configuration not stated),,inactive: -18.2%
CCC(C(=O)N1CCN(S(C)(=O)=O)CC1)c1ccccc1 (configuration not stated),"inconclusive [inhibitor, single point]",
COc1ccc(CCN2C(=O)CSC2=Nc2ccc(C(C)C)cc2)cc1OC,,inactive: -76.5%
N#CCCCc1cc2ccccc2cn1,"inconclusive [inhibitor, full curve]",
C=CCn1c(C(CCCC)CC(C)O)n[nH]c1=S (configuration not stated),,inactive: 25.7%
Cc1cccc(-c2cc3c(N=O)c4ccccc4c-3n[nH]2)c1,active: 11.2 µM,
COc1ccc(/C=N\NC(=O)c2ccccc2Cl)cc1COc1c(F)c(F)c(F)c(F)c1F,active: 2.24 µM,
CCNc1ccc(S(=O)(=O)N(C)C)cc1NCC(=O)Nc1ccc(Br)cc1F,"inconclusive [inhibitor, single point]",
Cc1cccc(-c2nnc(-c3cccc(NC(=O)Cc4cccs4)c3)o2)c1,"inconclusive [inhibitor, partial curve]",
CC(=O)N1c2ccc(S(=O)(=O)N3CCC(C(=O)N4CCC(C)CC4)CC3)cc2CC1C (configuration not stated),"inconclusive [inhibitor, single point]",
